Test results published in publication PMC4336329 (PLoS ONE, 2015).
In all, about 310,000 compounds went through this assay and about 2,200 (0.71%) showed an effect of 50% or more. The effect is printed as a negative number. The list shows a part of the results.

Each compound was assayed against human ether-à-go-go-related gene (hERG) potassium channel (human, UniProt Q12809) (assay: primary screen, population patch clamp on CHO cells stably expressing hERG).
Sequence of human ether-à-go-go-related gene (hERG) potassium channel (Q12809 whole entry, looked up): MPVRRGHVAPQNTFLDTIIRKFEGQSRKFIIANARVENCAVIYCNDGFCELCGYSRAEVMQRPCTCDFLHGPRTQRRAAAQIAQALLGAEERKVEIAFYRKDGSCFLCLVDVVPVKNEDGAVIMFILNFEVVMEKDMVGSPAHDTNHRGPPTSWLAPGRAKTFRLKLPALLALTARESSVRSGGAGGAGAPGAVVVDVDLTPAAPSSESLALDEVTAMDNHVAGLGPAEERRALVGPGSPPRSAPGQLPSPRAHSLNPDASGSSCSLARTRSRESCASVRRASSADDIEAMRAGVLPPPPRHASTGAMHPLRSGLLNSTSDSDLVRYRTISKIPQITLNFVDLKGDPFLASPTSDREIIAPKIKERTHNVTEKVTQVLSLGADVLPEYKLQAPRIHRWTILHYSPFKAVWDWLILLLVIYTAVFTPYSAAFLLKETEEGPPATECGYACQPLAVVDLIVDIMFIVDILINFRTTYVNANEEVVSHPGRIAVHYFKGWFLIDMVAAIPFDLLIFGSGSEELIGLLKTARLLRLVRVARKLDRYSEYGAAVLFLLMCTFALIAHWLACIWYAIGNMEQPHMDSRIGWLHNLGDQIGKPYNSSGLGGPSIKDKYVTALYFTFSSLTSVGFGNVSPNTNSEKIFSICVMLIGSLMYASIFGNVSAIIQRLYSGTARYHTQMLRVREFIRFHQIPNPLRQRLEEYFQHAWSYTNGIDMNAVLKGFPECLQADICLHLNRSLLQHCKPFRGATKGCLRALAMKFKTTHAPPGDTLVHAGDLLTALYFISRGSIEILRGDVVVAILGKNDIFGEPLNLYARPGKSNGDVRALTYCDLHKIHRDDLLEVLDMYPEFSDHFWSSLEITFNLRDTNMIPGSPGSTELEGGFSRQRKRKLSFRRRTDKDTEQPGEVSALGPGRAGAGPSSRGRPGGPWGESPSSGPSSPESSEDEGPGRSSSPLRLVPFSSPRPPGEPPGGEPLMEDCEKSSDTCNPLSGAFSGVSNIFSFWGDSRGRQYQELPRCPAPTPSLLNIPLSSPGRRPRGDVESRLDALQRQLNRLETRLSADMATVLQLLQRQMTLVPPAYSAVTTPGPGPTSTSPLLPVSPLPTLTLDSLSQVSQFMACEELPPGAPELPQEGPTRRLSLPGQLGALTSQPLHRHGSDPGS

Compound	hERG current change (%, negative = inhibition) at 1uM
O=C(Nc1ccc([N+](=O)[O-])cc1)C1(c2ccccc2)CCOCC1	-23.7%
O=C(NC(=S)N(Cc1ccccc1)Cc1ccccc1)C1CCCCC1	13.8%
CN(Cc1ccon1)C(=O)CC1C(=O)NCCN1Cc1ccc(F)c(F)c1 (stereo not drawn)	6.74%
CC(C)CC(=O)Nc1ccc2c(c1)nc(CCN1CCCCC1)n2C	5.78%
CCN1CCN(C(c2cccs2)C(C)NC(=O)c2ccccc2)CC1 (stereo not drawn)	7.62%
CC1=C(C(=O)OC(C)C)C(C2CC=CCC2)NC(=O)N1 (stereo not drawn)	10.5%
COc1ccc(CN2CCC(C(=O)N(C)CCc3ccc(OC)c(OC)c3)CC2)c(OC)c1.O=C(O)C(=O)O	-18%
Cc1cc(NC(=O)COC(=O)c2cccc(S(=O)(=O)N3CCOCC3)c2)no1	21.3%
COc1ccc(NC(=O)CN2CCN(S(=O)(=O)c3ccc(Br)cc3)CC2)c(OC)c1	25.1%
Cc1ccc(S(=O)(=O)N2CCN(CC(=O)N/N=C/c3ccc(C)o3)CC2)cc1	2.15%
CCCC[n+]1ccn(-c2nc3ccccc3nc2[N-]S(=O)(=O)c2ccc(Cl)cc2)c1	-0.782%
FC(F)(F)c1cccc(N2CCc3cn[nH]c32)c1	-1.93%
CC(C)NC(=O)c1ccccc1NC(=O)CS(=O)(=O)Cc1ccccc1	-3.54%
CC1=C(C(=O)N(C)C)C(c2ccccc2OC(F)F)NC(=O)N1 (stereo not drawn)	26.6%
Cc1nn(C2CCOC(C)(C)C2)c2c1C(c1ccc(OC(C)C)cc1)SCC(=O)N2 (stereo not drawn)	3.79%
Cc1ccc(NC(=O)CSc2nnc(-c3ccc(S(=O)(=O)N4CCCC4)cc3)o2)cc1C	2.45%
COc1ccccc1NC(=S)N(c1ccccc1)C(C)C	15.8%
CCC(C(=O)Nc1cc(C)nn1-c1nc(C)cc(C)n1)c1ccccc1 (stereo not drawn)	-6.6%
Cc1ccc(N2C(=O)C3C4C=CC(CC4)C3C2=O)cc1Br (stereo not drawn)	17.2%
OCCC1CN(CC#Cc2ccccc2)CCN1C1CCCC1 (stereo not drawn)	-7.79%
COc1ccc(C2=NN(C(=O)CCC(=O)O)C(c3cccs3)C2)cc1OC (stereo not drawn)	14.5%
COc1ccc(CCNC(=O)CCNC(=O)c2ccccc2Cl)cc1	12.4%
COc1ccc(-n2c(=O)c3ccccc3n(CC(=O)Nc3ccccc3OC)c2=O)cc1	1.61%
CC12CN(Cc3ccccc3)CC(C)(CN(Cc3ccccc3)C1)C2=O	16.1%
O=C(NNC(=S)NCc1ccco1)C(c1ccccc1)c1ccccc1	12.8%
COc1ccc(N(CC(=O)N/N=C/c2ccc(-c3ccc([N+](=O)[O-])cc3)o2)S(=O)(=O)c2ccc(C)cc2)cc1Cl	11.5%
CC(Oc1ccc2c(-c3ccccc3)cc(=O)oc2c1)C(=O)O (stereo not drawn)	7.43%

Compound	hERG current change (%, negative = inhibition) at 1uM
O=C(CSc1ncn[nH]1)NC1CC2CCC1C2 (stereo not drawn)	8.56%
COc1cc(C2CC(=O)Oc3c(C(CCN4CCCC(C)C4)c4ccc(N(C)C)cc4)c(OC)cc(OC)c32)cc(OC)c1OC (stereo not drawn)	5.75%
CN(C)c1ccsc1C(=O)NNS(=O)(=O)c1ccc(Cl)cc1	6.96%
OCCNc1cc(-n2nc(-c3ccccc3)cc2-c2ccccc2)ncn1	9.58%
Nc1c(C(=O)OCc2ccccc2)c2nc3ccccc3nc2n1Cc1cccs1	2.61%
Cc1cc(OC(=O)c2cc(Cl)ccc2Cl)c([N+](=O)[O-])c(=O)[nH]1	5.14%
Cc1cccc(NC(=O)c2ccc(C)c(S(=O)(=O)N3CCCCC3)c2)n1	8.24%
Cc1cccc(OCCCC(=O)Nc2nnc(C3CCCO3)s2)c1C (stereo not drawn)	8.98%
CN(C)N1C(N)=C(C#N)C(c2ccsc2)C2=C1CCCC2=O (stereo not drawn)	-10.4%
CCCCn1nc2cc(C(=O)NCc3cc(C(F)(F)F)cc(C(F)(F)F)c3)ccc2c1OC	19.3%
Cc1ccc(C2(c3ccccc3)NC(=O)N(CC(=O)NCc3ccco3)C2=O)cc1C (stereo not drawn)	-7.95%
O=C(CSc1ncc(C(F)(F)F)cc1Cl)N1CCN(S(=O)(=O)c2ccc(Cl)cc2)CC1	12.8%
Cc1cc(C)n2nc(CC#N)c(C#N)c2n1	9.75%
Cc1ccc(NC(=O)[C@H](Cc2c[nH]c3ccccc23)NC(=O)[C@@H]2Cc3ccccc3CN2)c(C)c1	3.31%
O=C(Nc1ccc(Cl)c(Cl)c1)N1CC=C(c2ccccc2)CC1	12.7%
O=C(NNC(=O)C1CCCCC1)c1ccc(Br)cc1	15.9%
O=C(N/N=C/C(Cl)=C/c1ccc([N+](=O)[O-])cc1)C(=O)Nc1cccc(C(=O)O)c1	17.2%
Cc1nnsc1Sc1cccc(C(F)(F)F)c1	6.03%
COc1ccccc1C(=O)N=c1sc2c(C)ccc(OC)c2n1C	15.5%
O=C(/C=C/Nc1ccc([N+](=O)[O-])cc1)c1ccc(Br)cc1	2.88%
Cn1ncc(Br)c1C(=O)Nc1ccc(F)cc1F	13.2%
CN(C)c1ccc(N=Nc2ccccc2C(=O)OCC(=O)NCC2CCCCC2)cc1	3.99%
COc1ccc(S(=O)(=O)N2CCC(C(=O)NCCC(=O)Nc3cccc(Cl)c3)CC2)cc1	10.7%
Cc1ccccc1N1CCN(Cc2c(C#N)c3ccccc3n2C)CC1	4.22%
O=C(NCc1ccccn1)c1ccc(Cl)c(S(=O)(=O)N2CCCCCC2)c1	-3.17%
NNC(=S)NCCc1ccccc1	6.33%
CCCC(=O)NC(C)c1nc2ccccc2n1C(C)C (stereo not drawn)	11.2%
